Measurements reported in PMC12136788.
The other results are listed elsewhere or left out.

T1: UNK ZnF1-6 (called full-length) (human, UniProt Q9C0B0 30-357)
T1 sequence: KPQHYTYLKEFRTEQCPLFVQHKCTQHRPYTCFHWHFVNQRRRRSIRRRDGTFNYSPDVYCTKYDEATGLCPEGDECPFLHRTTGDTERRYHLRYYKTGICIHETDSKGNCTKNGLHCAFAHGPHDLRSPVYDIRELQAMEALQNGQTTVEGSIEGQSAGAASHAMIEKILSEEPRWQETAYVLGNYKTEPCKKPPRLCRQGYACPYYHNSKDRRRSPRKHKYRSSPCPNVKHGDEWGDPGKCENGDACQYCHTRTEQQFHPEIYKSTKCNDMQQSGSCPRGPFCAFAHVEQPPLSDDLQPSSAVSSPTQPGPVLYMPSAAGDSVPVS

B1: chr7:6023389:6023508:+|CDS|ENSG00000106305|unk|total|mutant (ssRNA)
RNA: GGGAGUUCUACAGUCCGACGAUCGUUCUCUCUGUUUGGCCAGAAGCAUAAUGCUGUCAACGCAACCCUUACCGACCGCUGGGCCGAUAUUGCGAUUUUUCAGUUAAAAGAGGGAAGCAGUAAAGAAAAAGCCGCUGUUUUCCGCAACAGAGGAUUGAGCAUCA
B2: chr5:113594843:113594944:+|3pUTR|ENSG00000047188|msi1|total|mutant (ssRNA)
RNA: GGGAGUUCUACAGUCCGACGAUCCAACAUAAAAUCUUGAGAACCUUCUACUUUCUCUGGGAAAGCAUUAUACCGUGGUGCAUCCGUUCCGAAAGUCAGCUAUGAUUUUGCCUACCGUUCCCGUUAUCCGCUUUGGGGUUUUCUCAACAGAGGAUUGAGCAUCA
B3: chr16:18841627:18841728:-|CDS|ENSG00000157106|msi1|FALSE|bound_elsewhere (ssRNA)
RNA: GGGAGUUCUACAGUCCGACGAUCUACAAUUAAUCGCCAAGAAACACCCCGGUUCCAUGCUCGACACUAUUCUGUAACACCACUAGGAACAAGAUCAGGACUAAUCCAGUGGGUAGAUGGAGCCACACCCUUAUUUGGUCUUUACAACAGAGGAUUGAGCAUCA
B4: chr1:225491636:225491737:-|3pUTR|ENSG00000154380|msi1|FALSE|unique (ssRNA)
RNA: GGGAGUUCUACAGUCCGACGAUCGUACUUUGAAUUCCAUAGGAAAAAGCACUCAGAAGAAAAAGUCUACAUUGGCUAGUGUUUAGAUUGAGAGUUAAUUUUCCCAUCAAGUCCAAAAGUUUCCAUCCAAGUCUAUAGAAACUGCAACAGAGGAUUGAGCAUCA
B5: ENSG00000198589:be:win_4551|CDS|ENSG00000198589|bound_else_gene|NA|bound_elsewhere_windowed (ssRNA)
RNA: GGGAGUUCUACAGUCCGACGAUCAGUUGUUUUCAGAGACAUAGAGGAUAGCAAACAAGCUCAAUUUUUAGCCUUGGCAGUAGUAUACUUUAUCUCUGUUCUUAUGGUCUCCAAGUACAGAGACAUUUUGGAACCCCAAAAUGACAACAGAGGAUUGAGCAUCA
B6: chrX:141173234:141176580:-|three_prime_utr|ENSG00000182195|control|control|control (ssRNA)
RNA: GGGAGUUCUACAGUCCGACGAUCCUUGCCCUCCGGUCCCCUUACCUACCCGCGCCCGUCUGCUCUCUCUCUUCAUUUCUCCGUAGUGCUUGUCUUUGUUCCAGGAAUAGCGCUCCAGUUACCUGCUGCUGGGGUCGGGGCUGGCAACAGAGGAUUGAGCAUCA
B7: ENSG00000090612:stop:overlap|stop_codon|ENSG00000090612|stop_codon|NA|stop_codon (ssRNA)
RNA: GGGAGUUCUACAGUCCGACGAUCUGCUCACCACAACGUCUGCUUCCCGAGUUCAAGUGGUUCUCUUGCCUCAGCCUCCUGAGUAGCUGGGAUUACAGGUCCCACCUCUCCAAGAACGAAACAGUUCAUGGGAUAGGAUCAGAACAACAGAGGAUUGAGCAUCA
B8: chr2:135868693:135868794:-|CDS|ENSG00000076003|msi1|total|mutant (ssRNA)
RNA: GGGAGUUCUACAGUCCGACGAUCCCCAGAGCUUGUGAGCGGAACUUUUCUGUGCUUGGACUGUCAGACAGUGAUCAGGGAUGCCGAACAGCAGUUCAAAUACACACAGCCAAACAUCUGCCGAAAUCCAGUUUGUGCCAACAGCAACAGAGGAUUGAGCAUCA
B9: chr4:41958937:41959038:+|3pUTR|ENSG00000109133|msi1|FALSE|unique (ssRNA)
RNA: GGGAGUUCUACAGUCCGACGAUCUCUUGAACUCCUGGCCUCAAGUGAUCUGCCCGCCUCGACCUCCCAGAGUGCUGGGAUUAUAGGUGUGAGCCACUAAGCCUGGCUGAGACAACUAGUUUCCCUUAACUCAUUGGAAUUCUCCAACAGAGGAUUGAGCAUCA
B10: chr7:30013596:30013706:-|3pUTR|ENSG00000106080|msi1|FALSE|unique (ssRNA)
RNA: GGGAGUUCUACAGUCCGACGAUCUUAUAUUCAAUAUUUACUUCUUAAGGCUAGCGGAAUAUCCUUCCUGGUUCUUUAAUGGGUAGUCUAUAGUAUAUUAUACUACAAUAACAUUGUAUCAUAAGAUAAAGUAGUAAACCAGUCCAACAGAGGAUUGAGCAUCA
B11: chr15:38470281:38470388:+|CDS|ENSG00000171262|unk|total|mutant (ssRNA)
RNA: GGGAGUUCUACAGUCCGACGAUCCUUCAAGCUUCACAGAUAUUACAGAACAAGAAACAUAAAAAUUCUCAAUCCGAUAAAAACCGUGAAGUUUAUCAGGAAGUUCAAGCUAUGUUUGAUACACUUGGUAUACCCAAGUCAACACAACAGAGGAUUGAGCAUCA
B12: chr10:128103381:128103482:-|CDS|ENSG00000148773|msi1|total|mutant (ssRNA)
RNA: GGGAGUUCUACAGUCCGACGAUCAACUGGCAGCAGGAGACGGCCAAGAGCACCCAGGGAAAGUGCCCAAGCCACCGAAGACCCCGCUGGCUUCAAAGACCCAGCAGCAGGUCACACUGAAGAAUCAAUGACUGAUGACAAAACCAACAGAGGAUUGAGCAUCA
B13: ENSG00000198589:be:win_1851|CDS|ENSG00000198589|bound_else_gene|NA|bound_elsewhere_windowed (ssRNA)
RNA: GGGAGUUCUACAGUCCGACGAUCCAUGCACACGCUGAAGUACUACUACUGGGCAGUGAAUCCUCAGGAUCGAAGUGGUAUCACCCCAAAAGGAUUAGAUGGACCGCGACCUAAUCAAAAAGAAAUGCUUUCUCUACGAGCAUUCAACAGAGGAUUGAGCAUCA
B14: chr22:42796501:42797587:-|three_prime_utr|ENSG00000242247|control|control|control (ssRNA)
RNA: GGGAGUUCUACAGUCCGACGAUCGGAGAAAUUCCUCUUUAAAUGAACAAGUAACCACAUCUCAGGCGGCAGUGAAGUCCAGAUAGUUUUGCAGAUUGUUUUGCUACUUUUUCAUAUGGUAUAUGUUUCUGAUUUUUAAUAUUUCAACAGAGGAUUGAGCAUCA
B15: ENSG00000198589:be:win_5301|CDS|ENSG00000198589|bound_else_gene|NA|bound_elsewhere_windowed (ssRNA)
RNA: GGGAGUUCUACAGUCCGACGAUCACCAGGCAGUAGAUCAUCUAAUGCAAAAUUGCCCUCAGUUCCAACAGUUGAUUCAGUUUCACAAGAUCCGGUUUCAAAUAUGAGUAUUACAGAGAGGCUUGAACACGCUUUGGAAAAGGCCAACAGAGGAUUGAGCAUCA
B16: chrX:150768173:150768360:-|3pUTR|ENSG00000102181|msi1|FALSE|unique (ssRNA)
RNA: GGGAGUUCUACAGUCCGACGAUCUCCCAUCUGAUUCCAUAGGGGGCUGGGUGUGGCCUUCGGGUUGACAUGAGAAAGGUCUUUAGCAAUCAUUUCUGCACCGGAGAUGAGUUUUAUCCUGUGUUGGGGAGAGGUGCUCACCCUCAACAGAGGAUUGAGCAUCA
B17: chr17:67075675:67075776:-|3pUTR|ENSG00000198265|unk|total|mutant (ssRNA)
RNA: GGGAGUUCUACAGUCCGACGAUCAUUCCUUAUUUCCACCGCCAGUCAAGGAUUCUAACGCUGCUUCCAUCUGAUACUCUUCUCCGAUUCUGCAUCAAAUGCUUAUUUUGACUUACAACAAGCUUACUCUUCCUCAGCAUUACACAACAGAGGAUUGAGCAUCA
B18: chrX:154436128:154436291:+|3pUTR|ENSG00000071553|msi1_unk|total|mutant (ssRNA)
RNA: GGGAGUUCUACAGUCCGACGAUCAUUCCCGGGUCUCCUUUCUCCUUAUUUAUUCUUGUGGCUACAUCAUCCCUGGCUGUGGACCGUGCUUUUGUGCCGCAAAUGCUCCCUCCUUAAGGUUACCGGGCUCCCUGAGUUUGGGAGCAACAGAGGAUUGAGCAUCA
B19: chr19:51029091:51029457:-|three_prime_utr|ENSG00000186474|control|control|control (ssRNA)
RNA: GGGAGUUCUACAGUCCGACGAUCCCUUAACUUGGGUACCCCUCUGGCCCUCAGAGCACCAAUAUCUCCUCCAUCACUUCCCCUAGCUCCACUCUUGUUGGCCUGGGAACUUCUUGGAACUUUAACUCCUGCCAGCCCUUCUAACAACAGAGGAUUGAGCAUCA
B20: ENSG00000064393:stop:overlap|stop_codon|ENSG00000064393|stop_codon|NA|stop_codon (ssRNA)
RNA: GGGAGUUCUACAGUCCGACGAUCUCUCCCUGGAGAGUGGUUUUCCUGCUUUUCUGCUGCUAGAAAUGUUGCUGUAUGGGAGCUAGUACAAUAGAAAGUGCCCAGUGACUGCAGGCGACCCUUACCGAGGAUUUUAUUCAAGUACAACAGAGGAUUGAGCAUCA
B21: chr6:87085629:87085739:-|3pUTR|ENSG00000135346|unk|total|mutant (ssRNA)
RNA: GGGAGUUCUACAGUCCGACGAUCGUUUUACCAAGUGCUGUCUUGAUGACUGCUGAUUUUCUGGAAUGGAAAAUUAAGUUGUUCCGUGUUUAUGGCUUUGUGAGAUAAAACUCUCCUUUUCCUUACCAUACCACUUUGACACGCCAACAGAGGAUUGAGCAUCA
B22: chr5:177595998:177596040:+|3pUTR|ENSG00000184840|msi1_unk|FALSE|overlapping (ssRNA)
RNA: GGGAGUUCUACAGUCCGACGAUCCCUGAGCUGCUUCACAUGGUUGUCCAUUCUGGGGCUUAAAGAACUGGGACCAGACCAAGUAGAGGCCUUGGUGCUGGUUGGGGUGGGGCCUGCAGAGUCUUAGUUACUGAUUUCAUUUUCCAACAGAGGAUUGAGCAUCA

What follows are binders tested against T1, UNK ZnF1-6 (called full-length) (assay: nsRBNS (natural sequence RNA bind-n-seq); RBNS binding buffer (assumed for nsRBNS): 25 mM Tris pH 7.5, 150 mM KCl, 3 mM MgCl2, 0.01% Triton X-100, 500 ug/ml BSA, 20 U/ml SUPERase-In, 4 C; UNK is unkempt and MSI1 is Musashi-1; names of the RNAs are library labels; protein concentration not given here; high values mean tight binding).

Binder | binding signal [enrichment R]
B1 | 0.493
B2 | 0.459
B3 | 0.869
B4 | 0.708
B5 | 1.16
B6 | 1.29
B7 | 0.41
B8 | 0.698
B9 | 0.784
B10 | 1
B11 | 0.213
B12 | 0.749
B13 | 0.456
B14 | 1.49
B15 | 0.489
B16 | 1.06
B17 | 0.657
B18 | 0.954
B19 | 1.19
B20 | 0.569
B21 | 0.475
B22 | 1.42
